This passage reports z-score results from PubChem BioAssay AID488969 (Vanderbilt High Throughput Screening Facility, 2010).

Over roughly 110,000 compounds, “z-score” has its median near -0.1; the highest 2% begin near 2. The list shows a part of the results.

The target of the assay is Metabotropic glutamate receptor 8 (Rattus norvegicus) (UniProt P70579). Put plainly: mGluR8 Gi/Go-coupled signaling modulation – cell-based, rat, thallium flux, HTS, primary screen (AID 488969). The note with it: HEK293 rat mGluR8, GIRK (G protein-gated inwardly rectifying potassium channel) thallium flux, FluoZin2; at 10 µM; stronger effect = higher value; submaximal glutamate (EC20) added with thallium.
UniProt P70579, sequence (P70579 whole entry, looked up): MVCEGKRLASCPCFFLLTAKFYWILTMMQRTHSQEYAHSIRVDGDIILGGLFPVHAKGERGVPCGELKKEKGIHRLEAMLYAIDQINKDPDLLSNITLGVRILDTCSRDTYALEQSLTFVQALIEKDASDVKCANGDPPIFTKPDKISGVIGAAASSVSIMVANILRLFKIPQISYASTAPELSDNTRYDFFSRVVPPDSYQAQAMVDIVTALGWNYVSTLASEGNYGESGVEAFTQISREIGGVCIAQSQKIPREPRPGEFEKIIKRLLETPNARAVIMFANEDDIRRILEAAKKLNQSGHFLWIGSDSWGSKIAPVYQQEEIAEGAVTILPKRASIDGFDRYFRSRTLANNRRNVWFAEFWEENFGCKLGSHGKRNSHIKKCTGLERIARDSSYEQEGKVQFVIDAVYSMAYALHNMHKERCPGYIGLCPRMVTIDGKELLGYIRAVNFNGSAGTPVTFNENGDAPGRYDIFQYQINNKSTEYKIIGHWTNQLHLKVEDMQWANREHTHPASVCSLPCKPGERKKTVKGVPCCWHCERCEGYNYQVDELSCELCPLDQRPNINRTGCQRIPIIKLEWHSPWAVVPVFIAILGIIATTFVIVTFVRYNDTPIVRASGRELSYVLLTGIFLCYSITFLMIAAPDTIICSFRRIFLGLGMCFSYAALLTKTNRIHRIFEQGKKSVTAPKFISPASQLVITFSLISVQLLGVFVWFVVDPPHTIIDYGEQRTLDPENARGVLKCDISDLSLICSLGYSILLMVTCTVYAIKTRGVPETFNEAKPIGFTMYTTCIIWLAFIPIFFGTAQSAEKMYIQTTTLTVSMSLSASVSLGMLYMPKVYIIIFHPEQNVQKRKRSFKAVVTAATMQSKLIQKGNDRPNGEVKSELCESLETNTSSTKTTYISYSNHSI
For the molecule `O=C(NCc1ccccc1F)c1cccs1`, the z-score is -0.158.

In the case of `CCOC(=O)C(Cc1ccccc1)NC(=O)Cn1nnc(-c2ccc(SC)cc2)n1` (stereo not given), the z-score was found to be 1.52.

Molecule `O=C(NC(=S)Nc1ccc(NC(=O)c2cccs2)cc1)c1ccco1` gave a z-score of 0.574.

Regarding `Cc1nn(-c2ccccc2)c(N2CCCC2)c1/C=N/NC(=O)c1cc(-c2ccccc2)nc2ccccc12`, the z-score is -0.334.

Take `COc1ccccc1C(=O)NNC(=O)c1ccccc1F`: the z-score was -0.182.

For the molecule `CC(=O)c1ccc(NC(=O)c2ccc3nc(-c4ccco4)c(-c4ccco4)nc3c2)cc1`, the z-score was -0.096.

`CC(=O)c1c(C)nn(C(=O)c2cccs2)c1C` showed a z-score of -0.172.

`CCn1c(CCNC(=O)c2ccc(OC)c(OC)c2)nc2ccccc21` gave a z-score of -0.369.

Consider `O=C(NCc1ccccc1)c1nc2c(nnn2Cc2cccc(Cl)c2)c(=O)[nH]1`, for which the z-score was -2.18.

`O=C(CSc1ncccc1-c1nc2ccccc2[nH]1)Nc1ccc2c(c1)OCCO2` came in with a z-score of -0.327.

Regarding `COc1ccc2c(CCNC(=O)c3ccco3)c[nH]c2c1`, the z-score is -0.537.

For `COc1ccc(S(=O)(=O)Cc2ccc(C(=O)NCCc3ccc(S(N)(=O)=O)cc3)o2)cc1`, the z-score is -0.0374.

The molecule `C/C(=N/Nc1nc(-c2ccccc2)cc(-c2ccccc2)n1)c1ccc(N)cc1` displayed a z-score of 0.479.

In turn, `O=C(CSCc1ccc(Cl)cc1)NCC1CCCO1` (stereo not given) showed a z-score of -0.345.

The molecule `CNC(=O)CSc1nnc(-c2ccc(S(=O)(=O)N3CCCC3)cc2)n1-c1cccc(C)c1C` yielded a z-score of -0.443.

The molecule `O=c1/c(=C/c2cccc3ccccc23)sc2ncnn12` came in with a z-score of 1.25.

In the case of `COc1cc(C(=O)N2CCN(c3cccc(C)c3C)CC2)cc(OC)c1OC`, the z-score is -0.0699.

In turn, `COCCNC(=O)c1cn(Cc2c(F)cccc2Cl)nn1` yielded a z-score of 0.915.

For `O=C(NCCNS(=O)(=O)c1ccccc1)c1cc(OCC(F)(F)F)ccc1OCC(F)(F)F`, the z-score was 0.0829.

On to `COc1ccc(NC(=O)c2cccs2)cc1`, for which the z-score turned out to be 0.303.

`Fc1ccccc1CSc1nc2ccccc2[nH]1`: the z-score amounted to 0.129.

Regarding `CN1CCN(Cc2nc3c(c(=O)[nH]c(=O)n3C)n2CCc2ccccc2)CC1`, the z-score was -0.00916.

For `COc1ccc(C)c2sc(=NC(=O)c3ccccc3)n(C)c12`, the z-score was found to be 0.0409.

The molecule `N#Cc1c(N2CCN(C(=O)c3ccccc3)CC2)nc(-c2ccccc2)c2c1CCCC2` displayed a z-score of 2.92.

The molecule `O=C(CCCn1cnc([N+](=O)[O-])n1)Nc1cccc(Cl)c1Cl` showed a z-score of 0.147.

Turning to `COc1ccc(C(=O)NCc2nnc(SCC(=O)Nc3nc4ccccc4s3)o2)cc1`, the z-score is -0.198.

In the case of `Cc1cc(C(=O)OCC(=O)N2CC(=O)Nc3ccccc32)c(C)n1-c1ccc(F)cc1`, the z-score was -0.228.

Consider `CN(C)c1nc(N)nc(CSc2nnnn2-c2cccc3ccccc23)n1`, for which the z-score came to 0.0747.

As to `c1ccc(CSc2ncnc3c2sc2nc(N4CCOCC4)c4c(c23)CCCC4)cc1`, the z-score was -0.111.

For the molecule `O=C1CC(Nc2ccc(N3CCOCC3)cc2)C(=O)N1c1cccc(C(F)(F)F)c1` (stereo not given), the z-score was 0.146.

Take `COc1cccc(NC(=S)Nc2cccnc2)c1`: the z-score was -0.0965.

Consider `O=C(CSCCO)Nc1cccc(C(F)(F)F)c1`, for which the z-score was 0.657.

The molecule `O=C(O)CN1CCNCC1` came in with a z-score of -0.134.

For `COc1ccc(-c2nn(-c3ccccc3)cc2C(=O)Nc2nccs2)cc1OC`, the z-score was -0.662.

Turning to `CCOC(=O)c1cccc(P(=O)(C(C)(C)C)C(C)(C)C)c1`, the z-score is -0.208.

Regarding `COc1ccccc1NC(=O)Cn1ncc2c1-c1ccccc1OC2`, the z-score turned out to be 0.762.

`CCOC(=O)c1[nH]c2ccc(Br)cc2c1NC(=O)CCN1CCN(C(=O)OCC)CC1`: the z-score is -0.779.

As for `O=C(NCc1ccco1)C1c2ccccc2Oc2ccccc21`, the z-score is -0.16.

The molecule `Cc1ccccc1NC(=S)NC(NC(=O)N(C)C)C(Cl)(Cl)Cl` (stereo not given) came in with a z-score of -0.112.

With `COC(=O)C1C(O)=CC(=O)CC1C` (stereo not given), the z-score was -0.249.

In turn, `Cc1ccc(C(=O)Nc2ncc(C)s2)o1` displayed a z-score of -0.322.

Consider `O=C(CSc1nnc(-c2ccncc2)o1)Oc1ccccc1`, for which the z-score is -0.861.

In turn, `CCCCc1nc(Cl)c(C#N)c2c1CSC(C)(C)C2` had a z-score of 0.743.

`O=C(CSC1=NCCS1)NC1CCCCC1` returned a z-score of 0.281.

For `CN(C)S(=O)(=O)c1ccc(Nc2ccc(-c3ccc4c(c3)OCCO4)nn2)cc1`, the z-score is -0.02.

`Cn1c(C(=O)NCCCN2CCOCC2)cc2c(=O)n(C)c3ccccc3c21` returned a z-score of 0.0335.

Turning to `CC(C)CC(c1nnnn1Cc1ccccc1)N1CCC(C(N)=O)CC1` (stereo not given), the z-score was found to be 0.257.

`Cc1cc(Oc2nc3c(C)cccn3c(=O)c2/C=C(\C#N)S(=O)(=O)c2ccc(Cl)cc2)ccc1Cl` showed a z-score of 0.0615.

Molecule `Cc1ccc(-c2cc(C(F)(F)F)n3nc(C(=O)N4CCCC4)cc3n2)cc1` displayed a z-score of 0.899.

`Cc1cccc(Cn2cc(SCC(=O)Nc3nccs3)c3ccccc32)c1` returned a z-score of -0.0215.

On to `CC(C)c1nc2ccc(C(=O)O)cc2[nH]1`, for which the z-score is -0.0251.

`CCOC(=O)c1c(NC(=O)c2cc3n(n2)C(C(F)(F)F)CC(c2cccs2)N3)sc(C)c1C` (stereo not given) came in with a z-score of -0.183.

Regarding `CN(C)c1ccc(CNC(=O)c2ccc(CNc3c(N4CCCCC4)c(=O)c3=O)cc2)cc1`, the z-score was -0.328.

On to `CCOC(=O)/C=c1\s/c(=C\c2ccccc2C)c(=O)n1CC(=O)NCc1ccc2c(c1)OCO2`, for which the z-score is 0.0429.

`O=C(CSc1ccccn1)N/N=C/C=C/c1ccccc1` registered a z-score of -0.426.

`CCN(CC(=O)c1c(N)n(C)c(=O)n(C)c1=O)c1cccc2ccccc12`: the z-score amounted to 2.55.

As to `CCCn1c(SCC(=O)N2CCN(S(=O)(=O)c3ccc(Cl)cc3)CC2)n[nH]c1=O`, the z-score was -0.385.

As for `CCCNC(=O)CCC(NS(=O)(=O)c1ccc(C)cc1)C(=O)NCCC` (stereo not given), the z-score was 1.66.

The molecule `Cc1ccc(N2CC(C(=O)Nc3ccc4c(c3)OCCO4)CC2=O)cc1` (stereo not given) registered a z-score of 0.958.

Molecule `Cc1ccc(-c2n[nH]c(=S)n2-c2ccccc2)cc1` showed a z-score of 0.376.

`CCC(C)C1C(C#N)=C(N)OC2=C1C(=O)CC(C)(C)C2` (stereo not given) gave a z-score of -0.794.

On to `COc1ccccc1N(CC(=O)NCc1ccccc1)C(=O)CCC(=O)Nc1ccccn1`, for which the z-score was -1.03.

For the molecule `CCOC(=O)c1ccc(N2N=C(C)/C(=C/C=C/c3ccco3)C2=O)cc1`, the z-score was 0.523.

`COc1ccc(C(=O)c2c[nH]c3ccccc23)cc1` had a z-score of 0.89.

Consider `COc1ccc2c(c1)cc1n2CCN=C1NN`, for which the z-score was -0.286.

Molecule `Oc1ccc(-c2cn3c(n2)SCC3)cc1O` displayed a z-score of -0.229.

As to `CCN1CC(c2ccccc2)C(c2ccc(Cl)cc2)=N1` (stereo not given), the z-score is -0.308.

On to `O=S(=O)(N/N=C/c1ccccc1OCc1ccc(Cl)cc1)c1ccccc1`, for which the z-score was -0.834.

In turn, `COc1ccc(CCNC(=O)CSc2nnc(CNC(=O)c3cccs3)o2)cc1OC` displayed a z-score of -0.316.

For the molecule `O=C(c1cn(-c2ccccc2)nc1-c1cccs1)N1CCN(c2ccccc2)CC1`, the z-score is -0.0717.

In turn, `COc1ccc(OC)c(NC(=O)Cn2cc(C#N)c3cc(Br)ccc32)c1` displayed a z-score of -0.798.

In the case of `Cn1nc(-c2ccc(C(=O)NCC3CCCO3)cc2)c2ccccc2c1=O` (stereo not given), the z-score was -0.0748.

`CCC(c1nnc(SCC(=O)Nc2ccc(C(=O)Nc3ccccc3OC)cc2)o1)N(C)C` (stereo not given) had a z-score of -0.538.

The molecule `CCOc1ccc(NC(=O)c2ccc(OC)cc2)cc1` came in with a z-score of -0.316.

Consider `COc1cc2c(C(=O)N3CCN(c4cccc(Cl)c4)CC3)cn(CC(C)C)c(=O)c2cc1OC`, for which the z-score is -0.453.

In turn, `CCc1ccc(N(C(=O)C(F)(F)F)C(C(=O)NC2CCCCC2)c2ccncc2)cc1` (stereo not given) yielded a z-score of -0.196.

In turn, `CCOC(=O)c1c(C)[nH]c(C(=O)N/N=C/c2ccc(Br)cc2)c1C` showed a z-score of -0.141.

The molecule `Fc1cccc(C[n+]2csc3ccccc32)c1` had a z-score of 0.237.

For the molecule `O=C(c1ccc(Cl)cc1)N1CCN(c2cc(=O)[nH]nc2-c2ccccc2)CC1`, the z-score is -0.597.

As to `COC(=O)Cc1ccc(NC(=O)c2cccs2)cc1`, the z-score worked out at 0.153.

Regarding `CSc1cccc(NC(=O)/C=C/c2ccccc2)c1`, the z-score is -0.139.

`CCOC(=O)c1c(/N=C/c2cc(C)ccc2O)sc2c1CCN(C)C2` had a z-score of 0.21.

In turn, `CC1=C(C(=O)OCc2ccccc2)C(c2ccc(N3CCOCC3)cc2)NC(=O)N1` (stereo not given) had a z-score of 0.643.

Molecule `O=C(O)CCCSCC(=O)Nc1ccccc1` yielded a z-score of 0.633.

`Cc1ccccc1C(=O)N1CCN(c2ccc(NC(=O)CSc3ccc(Cl)cc3)cc2)CC1`: the z-score came out at 0.0427.

The molecule `Cc1ccc(-c2ccc(SCC(=O)N3CCN(c4ccccc4)CC3)nn2)cc1` showed a z-score of -0.105.

Consider `C/C(Cc1ccccc1)=N\NC(=O)CNC(=O)c1ccccc1`, for which the z-score was -0.152.

The molecule `N#Cc1c(N)nc2c(c1-c1cccs1)CCCC2` yielded a z-score of -0.265.

Molecule `O=C(NCCCN1CCOCC1)c1cc2cc(Br)ccc2oc1=O` registered a z-score of 1.36.

In turn, `c1cnc2ccc(C(c3nnnn3C3CCCC3)N3CCSCC3)cc2c1` (stereo not given) came in with a z-score of -0.706.

Turning to `CN(C)NC(=S)Nc1ccc2nc(-c3ccccn3)c(-c3ccccn3)nc2c1`, the z-score is -0.15.

Turning to `Cc1ccc(-n2cnnn2)c(S(=O)(=O)N2CCOCC2)c1`, the z-score is 0.000578.

Molecule `Cc1ccccc1C(=O)Nc1ccc(N2CCOCC2)nc1` came in with a z-score of -0.33.

Molecule `OCCCCCN=c1cc(-c2ccccc2)oc2ccc(Cl)cc12` registered a z-score of -0.493.

On to `COc1ccc(C(C)C)cc1S(=O)(=O)n1cnc(C)c1`, for which the z-score was -0.0326.

On to `O=C(c1nn2c(C(F)(F)F)cc(-c3cccs3)nc2c1Br)N1CCCc2ccccc21`, for which the z-score is -0.256.

Take `NC1(N)OC(CN2C(=O)c3ccccc3C2=O)CS1` (stereo not given): the z-score was found to be 0.67.

For the molecule `Cc1ccc(C(=O)N(NC2=NS(=O)(=O)c3ccccc32)S(=O)(=O)c2ccc(C)cc2)cc1`, the z-score is 0.0316.

For `Cc1ccc(-c2nnc(Nc3ccc(CC(N)=O)cc3)c3ccccc23)cc1`, the z-score was 0.299.

With `CCN(CC)CC(O)COc1ccc2c(c1)c(C(C)=O)c(C)n2-c1ccccc1` (stereo not given), the z-score was determined as 2.25.

For the molecule `O=C(NCCSCc1ccccc1)c1ccc(C2SCC(=O)N2Cc2ccccc2)cc1` (stereo not given), the z-score is 0.575.

`O=C(COC(=O)c1cc(S(=O)(=O)N2CCc3ccccc3C2)ccc1Cl)NCc1ccco1`: the z-score is -0.0734.

For `COc1ccccc1Nc1nc(N)nc(-c2cc3ccccc3o2)n1`, the z-score is -0.352.

Molecule `CC1CCCC(C)N1C(=O)COc1ccc(-c2nnco2)cc1` (stereo not given) came in with a z-score of -0.127.

`Cc1ccc(S(=O)(=O)N/N=C/c2cnn(C)c2C)cc1`: the z-score was -0.11.

`O=C(/C=C/c1ccco1)NC(=S)Nc1ccc(Cl)cn1` yielded a z-score of 1.63.

In the case of `COc1cc(NS(=O)(=O)c2ccc(F)cc2)c(C(=O)O)cc1OC`, the z-score was -0.676.

Turning to `CNC(=O)NC(=O)C(C)OC(=O)c1c(C)noc1C` (stereo not given), the z-score was found to be 0.197.

`N=c1c2c(-c3ccccc3)c(-c3ccccc3)n(Cc3ccccc3)c2ncn1CCO` returned a z-score of 0.392.

In turn, `Cc1ccc(Nc2cnn(C34CC5CC(CC(CC(=O)O)(C5)C3)C4)c(=O)c2Cl)cc1` displayed a z-score of -0.186.
